Assay results published in PubChem BioAssay (NCI).
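Each compound was tested at five concentrations against cells in 96-well plates for 48 hours. Abbreviation: GI50, concentration required for 50% inhibition of growth. TGI is the concentration that stops growth completely.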

These compounds were tested on NCI-H322M lung (assay: NCI-60 cell line screen, 48 h).
Compound `Cc1nc2c(o1)C(=O)c1ccccc1C2=Nc1ccccc1` has a TGI of 29.8 µM. In the case of `CCOC(=O)N1Cc2ccoc2C1`, the TGI is reported as over 100 µM. Work on `N#CC1=C(N)Oc2c(ccc3ccccc23)C1c1cccs1` (centres undefined) yielded a GI50 of 0.0531 µM and a TGI of 20.1 µM. For `CCOP1(=O)C=CC(Cl)=C(C)C1` (centres undefined), the TGI was 59.7 µM. Work on `Cc1ccc(NC2=N[C@]34CC(=O)CC[C@]3(C)[C@H]3CC[C@]5(C)C(=O)CC[C@H]5[C@@H]3C[C@@H]4S2)c(C)c1` yielded a GI50 of 4.28 µM and a TGI of over 100 µM. `O=C(Nc1ccc([As]=[As]c2ccc(NC(=O)c3ccccc3)cc2)cc1)c1ccccc1` (centres undefined) showed a GI50 of 1.69 µM and a TGI of 3.12 µM. `C#CCOC(=O)C(N)C(C)O` (centres undefined) showed a TGI of over 100 µM. With `CC(C)C[C@H](NC(=O)Cn1ccc(Nc2ccccc2)cc1=O)B(O)O` the GI50 was 25.8 µM and the TGI was over 100 µM. For `CCOc1ccc2nc(NC(=O)C(=O)C(C#N)CC(C)(C)C=O)sc2c1` (centres undefined), the TGI was over 100 µM. In the case of `OCCCNCc1ccncc1`, the TGI is reported as over 100 µM. `N#Cc1nc(C(O)c2ccccc2)oc1N` (centres undefined) was tested, and the TGI was over 100 µM. Compound `c1ccc2c3ccn4ccc5c6ccccc6[nH]c5c4c-3nc2c1` has a TGI of 2.25 µM. Work on `Cc1ccc(NC(=O)SCCC(=O)O)cc1` yielded a TGI of over 100 µM. `COC(=O)C#Cc1cccc(OC)c1OC` showed a TGI of over 100 µM. For `N#CC1(Cc2ccccc2[N+](=O)[O-])c2ccccc2C2C(N1C(=O)c1ccccc1)C2(Cl)Cl` (centres undefined), the TGI was over 100 µM. `COc1cc2ccc1NC(=O)N1CCN(CC1)C(=O)Nc1ccc(cc1OC)-c1ccc(c(OC)c1)NC(=O)N1CCN(CC1)C(=O)Nc1ccc-2cc1OC` showed a TGI of over 100 µM. `O=C(Nc1ccccc1)c1cc(S(=O)(=O)n2cc[nH]c2=O)c(S)cc1Cl` gave a TGI of over 100 µM. Work on `CCOC(=O)C1=C(OC(OCC)C(C)[Se]c2ccccc2)CCC1` (centres undefined) yielded a TGI of over 100 µM. With `Nc1nc(N)c2c(Cl)c(CNc3ccc(C(=O)NC(CC(=O)O)C(=O)O)cc3)ccc2n1` (centres undefined) the TGI was over 100 µM. `O=C(CCc1ccc(O)c(O)c1)OCCc1ccccc1` showed a TGI of 93 µM. Work on `CCCCOC(=O)C(=O)C(CC(CC)C(=O)c1ccccc1)C(=O)C=C(C)C` (centres undefined) yielded a TGI of over 100 µM. `CCc1cccc(C)c1NC(=O)CC(=O)NNC(N)=S` showed a TGI of over 100 µM. `CC(=O)OC1CC2C(C)(C)C(=O)C=C[C@]2(C)C2CC[C@]3(C)C(OCC(=O)[C@H]3c3ccoc3)[C@]12C` (some centres undefined) gave a GI50 of 2.27 µM and a TGI of 8.71 µM. `C=C1C(NC)CCC23CC24CCC2(C)C(C(C)=O)C(O)CC2(C)C4CCC13` (centres undefined) gave a TGI of over 100 µM. In the case of `CC1(C)CC[C@]2(C(N)=O)CC[C@]3(C)C(=CC[C@@H]4[C@@]5(C)C/C(=C/c6cccnc6)C(=O)C(C)(C)[C@@H]5CC[C@]43C)[C@@H]2C1`, the GI50 is reported as 3.73 µM and the TGI is reported as over 100 µM. `CC(C)(C)c1cc(OCc2nnc3sc(-c4ccc(Cl)cc4)nn23)c(Cl)cc1OCc1nnc2sc(-c3ccc(Cl)cc3)nn12` was tested, and the TGI was over 100 µM. For `CC(=O)N1CCC(Nc2cc(C(=O)NC[C@H](O)CN3CCc4ccccc4C3)ncn2)CC1`, the GI50 was over 100 µM and the TGI was over 100 µM. For `CCCc1[nH]nc(C(N)=O)c1N=NN(C)C`, the TGI was over 100 µM. `CC1(C)c2ccccc2C(C)(C)C(C(=O)Nc2ccccc2)C1C(=O)O` (centres undefined) gave a TGI of over 100 µM. `Cn1cc(-c2ccc(-c3cn(C)c4ccc(Cl)cc34)[nH]2)c2cc(Cl)ccc21` was tested, and the GI50 was 4.14 µM and the TGI was 22.2 µM. `O=C1N[C@@H]2[C@@H](O)[C@@H](O)[C@H](O)C[C@H]2c2cc3c(c(O)c21)OCO3` gave a GI50 of 0.079 µM and a TGI of 0.561 µM. `Cc1ccc(S(=O)(=O)NC(C(=O)O)C(C)C)cc1` (centres undefined) gave a TGI of over 100 µM. Work on `O=C(Nc1cccc(Cl)c1)Nc1nccs1` yielded a GI50 of 24 µM and a TGI of 82.4 µM. Work on `NCCCN1CCN(c2ccccc2)CC1` yielded a TGI of over 100 µM. Compound `CC(C)c1ccc(/C=C2\N=C(c3ccc([N+](=O)[O-])cc3)OC2=O)cc1` has a TGI of over 100 µM. `CC(=O)N1C(Nc2cnc3ccccc3c2)CCN1c1ccccc1` (centres undefined) showed a TGI of over 10 µM. Work on `O=C(N/N=C(\CN1CCN(c2cc3[nH]cc(C(=O)O)c(=O)c3cc2F)CC1)c1ccc(Cl)cc1)c1ccncc1` yielded a GI50 of 25.4 µM and a TGI of over 100 µM. `CN(C(=O)CCC(=O)O)c1ccccc1C(=O)O` showed a TGI of over 100 µM. `Cc1cc(Cc2cc(Cc3cc(C)cc(C(C)(C)C)c3O)c(C)cc2C)c(O)c(C(C)(C)C)c1` was tested, and the TGI was 32.3 µM. In the case of `Cc1nc2sccn2c1C(=O)N/N=C1\SCC(=O)N1C`, the TGI is reported as over 100 µM. `Cc1ccc(Cc2nc(=S)[nH][nH]2)cc1` was tested, and the TGI was over 100 µM. `C/C(=N/OC(=O)c1cccc2c(=O)c3ccccc3[nH]c12)[C@H]1CC[C@H]2[C@@H]3CCC4=C/C(=N/OC(=O)c5cccc6c(=O)c7ccccc7[nH]c56)CC[C@]4(C)[C@H]3CC[C@]12C` showed a TGI of 78.5 µM. With `CC(C)CSCC1OC(n2cnc3c(N)nccc32)C(O)C1O` (centres undefined) the TGI was over 100 µM. `O=C1O/C(=C\c2ccc(O)c(Br)c2)C(c2ccc(O)c(Cl)c2)=C1Br` was tested, and the TGI was 44.5 µM. Compound `O=C(Nc1ccc(Cl)c(Cl)c1)C(=O)C(C(=O)c1ccccc1F)C1OC(=O)c2ccccc21` (centres undefined) has a TGI of 70.6 µM. For `CCCCCCCC(=O)SCC/C=C/[C@@H]1CC(=O)NCc2cccc(n2)CN(Cc2ccc3ccccc3c2)CC(=O)N[C@@H](C(C)C)C(=O)O1`, the GI50 was 46.7 µM and the TGI was over 100 µM. `Cc1cc([N+](=O)[O-])ccc1Sc1c2ccccc2nc2ccccc12` gave a TGI of over 100 µM.
